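Cells were grown in 96-well plates and exposed to each compound for 48 hours at five concentrations; endpoints were interpolated linearly between bracketing concentrations, or set to the highest concentration if not reached. The concentration for 50% growth inhibition is given as GI50.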 Activity calls are given as the source filed them. Rule as the data show it: active = GI50 up to about 1.1 µM and inactive = higher. A value given as a limit tells only on which side of the number the result lay.

The test system of the assay is NCI-H322M. In words: growth of human tumour cells (NCI), 48 h.
For `CCCC(=O)OC1C(C(O)CO)OC2OC(C)(C)OC21` (stereo unspecified), the GI50 was inactive: > 100 µM.

For `Cc1ncc(COP(=O)(O)O)c(C)c1O`, the GI50 is inactive: > 100 µM.

As for `CN1CC(=O)N2Cc3ccccc3-n3cccc3C2C1` (stereo unspecified), the GI50 is inactive: > 100 µM.

For `COC1CCC(OC2CC(C3(C)CCC4(CC(O)C(C)C(C(C)/C=C(\C)C(=O)C(C)CC(C)C(=O)O)O4)O3)OC3(OC(C4OC(O)(CO)C(C)CC4C)CC3C)C2C)OC1C` (stereo unspecified), the GI50 is active: 0.291 µM.

Turning to `OCCCNCc1ccccn1`, the GI50 was inactive: > 100 µM.

On to `Nn1c(CCCCCCCCc2nnc(COc3c(O)ccc4ccccc34)n2N)nnc1COc1c(O)ccc2ccccc12`, for which the GI50 is inactive: > 100 µM.

Consider `C[C@]12CC(c3ccccc3O1)C(C(N)=O)C(=O)N2` (stereo partly specified), for which the GI50 was inactive: > 100 µM.

For the molecule `COc1cc2c(cc1-c1coc3cc(OCC=C(C)C)ccc3c1=O)OCO2`, the GI50 is inactive: 31.4 µM.

As to `CC1OC(OC2C(OC(=O)[C@]34CCC(C)(C)C[C@H]3C3=CC[C@@H]5[C@@]6(C)CC[C@H](OC7OC(C(=O)O)C(O)C(O)C7O)C(C)(C)[C@@H]6CC[C@@]5(C)[C@]3(C)C[C@H]4O)OCC(O)C2O)C(O)C(OC2OCC(O)(CO)C2O)C1OC1OCC(O)C(O)C1O` (stereo partly specified), the GI50 is inactive: 3.37 µM.

Consider `COc1cc(OCc2ccc3nc(-c4ccccc4)c(N)nc3c2)cc(OC)c1OC`, for which the GI50 is inactive: 11 µM.

For `CCN(CC)C(=S)N/N=C(\C)c1cccc(C)n1`, the GI50 is active: < 0.0391 µM.

In the case of `CCC1OC(=O)CC(O)C(C)C(OC2OC(C)CC(N(C)C)C2O)C(CC=O)CC(C)C(=O)/C=C/C2(C)OC2C1C` (stereo unspecified), the GI50 was inactive: 36.7 µM.

With `O=S(=O)(CCBr)CCBr`, the GI50 is inactive: 16.8 µM.

On to `O[C@@]12Cc3c([nH]c4ccccc34)[C@@H]3Oc4c(-c5ccccc5)ccc5c4[C@@]31CCN(CC1CC1)[C@@H]2C5`, for which the GI50 was inactive: 1.95 µM.

`Cc1cnoc1/N=C1\C=C(Nc2oncc2C)C(=O)c2ccccc21`: the GI50 was inactive: > 100 µM.

As to `COc1ccccc1CC(=O)C(O)(C(F)(F)F)C(F)(F)F`, the GI50 was inactive: > 100 µM.

As to `Nc1nn2c(=O)c3ccccc3nc2s1`, the GI50 was inactive: > 100 µM.

`O=c1oc2c3ccc4ccccc4c3n(CCCN3CCCCC3)c2c2ccccc12`: the GI50 was inactive: > 100 µM.

Consider `CCOC(=O)C1C(NC(N)=O)N(Cc2ccccc2)C(=O)N1Cc1ccccc1` (stereo unspecified), for which the GI50 was inactive: > 100 µM.

As to `COc1cc2c(cc1OC)C(=O)N(c1ccc(OCCN3CCCC3)cc1)C2=O`, the GI50 was inactive: > 100 µM.

`COCn1c(C)c(C)c2c(=O)oc(C)nc21`: the GI50 is inactive: > 100 µM.

On to `COC(=O)C1C(OCc2ccccc2)C2CCC1(OC)C=C2C` (stereo unspecified), for which the GI50 was inactive: > 100 µM.

As to `Cc1ccc(C)c(NC(=O)CC2C(=O)Nc3ccccc3S2(=O)=O)c1` (stereo unspecified), the GI50 was inactive: > 100 µM.

In the case of `CCOC(=O)CCC(NC(=O)c1ccc(Nc2cnc3ccc(C(F)(F)F)cc3n2)cc1)C(=O)OCC` (stereo unspecified), the GI50 was inactive: 27.7 µM.

Regarding `CN(C)c1ccc2nc3c(C(=O)O)cc(O)c(O)c3[o+]c2c1`, the GI50 was inactive: 30 µM.

In the case of `[N-]=[N+]=NC[C@H]1OCO[C@H](CN=[N+]=[N-])[C@@H](OCCOCCCl)[C@@H]1OCCOCCCl`, the GI50 is inactive: > 100 µM.

In the case of `CC1(C)COC(c2ccccc2-c2ccccc2)=N1`, the GI50 is inactive: > 100 µM.

For `COc1ccccc1-n1c(N)c2c(C)c(-c3ccccc3)[nH]c2nc1=S`, the GI50 is inactive: > 100 µM.

Turning to `CCOC(=O)C(NC(=O)CC)(C(F)(F)F)P(=O)(OCC)OCC` (stereo unspecified), the GI50 was inactive: > 100 µM.

In the case of `CNC(=O)N(CCCC(NC(C)=O)C(=O)NCc1ccccc1)Cc1ccccc1` (stereo unspecified), the GI50 is inactive: > 100 µM.

`Cc1ccc(/N=N/c2c(C)nn(C(=O)CC(=O)Nc3ccccc3)c2C)cc1C`: the GI50 is inactive: > 100 µM.

For `CC[C@@H](CCCC[C@@H]1CC[C@H]2CC(=O)C[C@@H]12)OC`, the GI50 is inactive: > 100 µM.

As to `CC(=O)Nc1ccc(S(=O)(=O)/N=c2/sc(S(N)(=O)=O)nn2C)cc1`, the GI50 is inactive: > 100 µM.

Regarding `O=C(c1ccccc1)c1ccc2c(c1)N=C(c1ccc(Cl)c(Cl)c1)CC(c1ccc3ccccc3c1)N2` (stereo unspecified), the GI50 was inactive: > 100 µM.

With `NC(=S)N/N=C1/C(=O)N(c2ccc(Cl)cc2Cl)C(=O)C(=O)C1c1nc2ccccc2s1` (stereo unspecified), the GI50 is inactive: > 100 µM.

Consider `CC(C)N(C(=O)C12C3C4C5C3C1(C(=O)O)C5C42)C(C)C` (stereo unspecified), for which the GI50 is inactive: > 100 µM.

`O=C(C[C@H](NC(=O)OCc1ccccc1)C(=O)NC1Cc2ccccc2OC1=O)OCc1ccccc1` (stereo partly specified): the GI50 is inactive: > 100 µM.

`O=C1COc2ccc([N+](=O)[O-])cc2C(=O)C1`: the GI50 was inactive: > 10 µM.

Take `CCOP(=O)(/C=C/n1ccc(N)nc1=O)OCC`: the GI50 was inactive: > 100 µM.

Turning to `Cc1cc(N(CCC#N)CCC#N)ccc1CC1N=C(c2ccccc2)OC1=O` (stereo unspecified), the GI50 was inactive: > 100 µM.

With `O=C(CNc1ccccc1Cl)Nn1c(-c2ccccc2)nc2ccccc2c1=O`, the GI50 is inactive: 34.2 µM.

As for `O=C1N(c2ccccc2)C(=S)/C(=C/c2ccc(Cl)cc2)N1c1ccc(Cl)cc1`, the GI50 is inactive: > 100 µM.

As for `CC1(C)Oc2ccc(Cl)cc2C12CC2`, the GI50 is inactive: 22.2 µM.

Consider `CCOC(=O)/C=C/CCC(C)(C)COC(C)=O`, for which the GI50 was inactive: > 10 µM.

Take `CC(C)(CC(O)C#N)/[N+]([O-])=[N+](\[O-])C(C)(C)CC(O)C#N` (stereo unspecified): the GI50 was inactive: > 100 µM.

Consider `CC1=C(\C=C/C(C)=C/C=C/C(C)=C/C=C/C=C(C)\C=C\C=C(C)/C=C/C2=C(C)CCCC2(C)C)C(C)(C)CCC1`, for which the GI50 was inactive: > 100 µM.

With `CCc1cccc(C(C)CC)c1NC(=O)CC1C(=O)Nc2ccccc2S1(=O)=O` (stereo unspecified), the GI50 is inactive: 21.3 µM.

As for `COc1cc(C(=C2SCCS2)c2nccc3cc(OC)c(OC)cc23)c([N+](=O)[O-])cc1OC`, the GI50 is inactive: > 100 µM.

Take `CC(C)NC(=O)OCc1nnn2c1C(OC(=O)NC(C)C)CC2` (stereo unspecified): the GI50 was inactive: > 100 µM.

For the molecule `O=C(/C(=N\Nc1ccc([N+](=O)[O-])cc1[N+](=O)[O-])NC12CC3CC(CC(C3)C1)C2)C(Br)C(=O)c1ccccc1` (stereo unspecified), the GI50 was inactive: 5.04 µM.

As for `CCN(/C=C1/C(=O)C(c2ccccc2)N(c2ccccc2)C1=O)CC` (stereo unspecified), the GI50 is inactive: > 10 µM.

For `Cc1cccc(/C=N/NC(=S)NC(C)(C)C)n1`, the GI50 is inactive: > 100 µM.

As for `C=C(C[N+](C)(C)C)N/N=C/c1oc(-c2ccc(OC)c(OC)c2)c(-c2ccc(OC)c(OC)c2)c1[N+](=O)[O-]`, the GI50 is inactive: 21.8 µM.

With `CC(=O)c1cc2ccccc2[n+]([O-])c1N`, the GI50 is inactive: > 100 µM.

Consider `CN(C)C(=S)/N=c1\ssc(=S)n1Cc1ccncc1`, for which the GI50 was inactive: 43.6 µM.

In the case of `CCCC(=O)N(C)/N=N/c1ccc(C(=O)OCC)cc1`, the GI50 is inactive: > 100 µM.

Turning to `O=C1OCc2c1cc1cc3c(cc1c2-c1ccc2c(c1)OCO2)OCO3.O=C1OCc2cc3cc4c(cc3c(-c3ccc5c(c3)OCO5)c21)OCO4`, the GI50 was inactive: 36.1 µM.

As to `C=C1C(=O)OC2CCN3CC=C(COC(=O)C(C)(O)C4(CO4)C1C)C23` (stereo unspecified), the GI50 was inactive: > 100 µM.

For `COC(=O)C12C3C4C1C1C2C3C41C(=O)N(C(C)C)C(C)C` (stereo unspecified), the GI50 was inactive: > 100 µM.

For the molecule `CCN1C=C/C(=C\C=C\c2cc[n+](CC)c3ccccc23)c2ccccc21`, the GI50 is inactive: 6.03 µM.

Turning to `Cc1nc2ccc(/N=N/N(C)C)cc2[nH]1`, the GI50 was inactive: > 100 µM.

Turning to `COc1cc(O)c2c(c1C)C(C)(O)c1c(C)coc1C2=O` (stereo unspecified), the GI50 is inactive: > 100 µM.

As for `CC(C)(C)OC(=O)N(O)CCCn1cnc2c(NC3CC3)ncnc21`, the GI50 is inactive: > 100 µM.

`COC1OC(CBr)C(OC(=O)c2ccccc2)C(OS(=O)(=O)c2ccc(C)cc2)C1Br` (stereo unspecified): the GI50 was inactive: > 100 µM.

As to `CN1CC=C(c2c(N)nc(N)[nH]c2=O)CC1`, the GI50 is inactive: > 100 µM.

With `CCOC(=O)C1C(c2ccc3c(c2)OCO3)c2c(n[nH]c2O)CC1(O)OCC` (stereo unspecified), the GI50 was inactive: > 100 µM.

Consider `NCC(=O)OCN1C(=O)C2C3C=CC(C2C1=O)C1C2C(=O)N(COC(=O)CN)C(=O)C2C31` (stereo unspecified), for which the GI50 is inactive: 73.3 µM.

On to `CCN(CC)C(=S)N/N=C/c1cc(OC)ccc1O`, for which the GI50 is inactive: 5.41 µM.

Turning to `Cc1[nH]c2[nH]c(=S)nc(NC(N)=S)c2c1Cc1ccccc1`, the GI50 was inactive: 68.1 µM.

As for `CC(C)(C)OC(=O)NC(CS(=O)(=O)O)C(=O)O` (stereo unspecified), the GI50 was inactive: > 100 µM.

With `O=C(O)c1cc(/N=N/c2ccc([N+](=O)[O-])cc2)ccc1O`, the GI50 is inactive: 26.1 µM.

Turning to `CC1=CC(=O)CC2(C)CC[C@@H]3C[C@]12OC3(C)C` (stereo partly specified), the GI50 was inactive: > 100 µM.

In the case of `COc1cc(C2c3cc4c(cc3[C@H](NC(=O)c3cccs3)C3COC(=O)[C@H]23)OCO4)cc(OC)c1OC` (stereo partly specified), the GI50 was active: < 0.01 µM.

Regarding `COC(=O)C1=C(O)c2cc(OC)c(OC)c(OC)c2C(c2ccc3c(c2)OCO3)[C@@H]1C(=O)OC` (stereo partly specified), the GI50 was inactive: 6.89 µM.

In the case of `CCN(CC)CCCNc1ccc2nc(C)n3c4ccc(O)cc4c(=O)c1c23`, the GI50 was inactive: 2.4 µM.

With `c1ccc([S+](c2ccccc2)c2ccc(Sc3ccc([S+](c4ccccc4)c4ccccc4)cc3)cc2)cc1`, the GI50 was inactive: 35.9 µM.

Regarding `O=C(N/N=C/c1cccc(F)c1)c1ccncc1`, the GI50 is inactive: > 100 µM.

For `CC1(C)[C@@H](Cn2cnc3c(Cl)nc(N)nc32)CC[C@@]1(C)CO`, the GI50 was inactive: 44.4 µM.

As to `COC(=O)c1ccc(/C=N/c2ccc(S(N)(=O)=O)cc2)cc1`, the GI50 is inactive: > 100 µM.

For the molecule `C#CCN(Cc1ccc2[nH]c(N)nc(=O)c2c1)c1ccc(C(=O)NC(CCC(=O)O)C(=O)O)cc1` (stereo unspecified), the GI50 is inactive: > 100 µM.

As for `COc1ccc(-c2cc(=O)c3c(OC)cccc3o2)c(OC)c1OC`, the GI50 was inactive: > 100 µM.

The values are drawn from ChEMBL document CHEMBL1201862, “PubChem BioAssay data set” (2004).
